Results reported in PubChem BioAssay AID588342 (National Center for Advancing Translational Sciences (NCATS), 2011).
About 25,000 (6.9%) of roughly 360,000 compounds were called active. The shares of active, inactive and inconclusive entries below differ from those in the screen. Calls follow the shape of the dose curve; as a rule, active = well fitted inhibition curve with a large enough effect; inconclusive = small, poorly fitted or top-dose-only effect; inactive = flat fitted curve, though single readings scatter. A potency beside an inconclusive call is a rough fit, not a confirmed value.

Target: Luciferin 4-monooxygenase (Photinus pyralis) (UniProt P08659)
UniProt P08659, sequence (P08659 whole entry, looked up): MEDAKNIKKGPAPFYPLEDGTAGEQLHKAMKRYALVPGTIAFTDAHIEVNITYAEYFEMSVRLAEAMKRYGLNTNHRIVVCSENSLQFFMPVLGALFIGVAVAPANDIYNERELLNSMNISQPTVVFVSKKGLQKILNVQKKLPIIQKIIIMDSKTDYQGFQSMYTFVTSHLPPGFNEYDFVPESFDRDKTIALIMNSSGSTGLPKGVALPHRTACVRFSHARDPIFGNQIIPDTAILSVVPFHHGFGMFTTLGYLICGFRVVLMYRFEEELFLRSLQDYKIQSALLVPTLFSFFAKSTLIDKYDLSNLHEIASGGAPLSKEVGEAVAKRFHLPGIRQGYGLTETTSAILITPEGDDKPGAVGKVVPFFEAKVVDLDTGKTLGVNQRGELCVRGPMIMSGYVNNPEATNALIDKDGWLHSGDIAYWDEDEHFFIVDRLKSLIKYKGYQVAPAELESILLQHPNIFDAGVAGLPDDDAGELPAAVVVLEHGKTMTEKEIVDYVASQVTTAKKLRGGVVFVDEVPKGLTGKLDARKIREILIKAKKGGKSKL
Assay: qHTS profiling assay for firefly luciferase inhibitor/activator using purifed enzyme and Km concentrations of substrates (counterscreen for miR-21 project); also: nearly all actives have a fitted effect of over 55% in size
Conditions: purified FLuc, luminescence inhibition; series mostly up to 57.5 µM
Method in brief: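 Biochemical qHTS of compounds, final roughly 60 µM downward over six points, against 10 nM purified firefly luciferase using Km concentrations of substrates (10 uM D-luciferin, 10 uM ATP) in Tris acetate pH 7.5 buffer; luminescence output.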
Potency is read from the fitted curve at half-maximal effect; tags tell the direction and shape of the fitted curve.

Row | SMILES | Potency
1 | CCc1ccc(NC(=O)CSCc2ccc(C(=O)O)cc2)cc1 | inconclusive: 23.9 µM [inhibitor, partial curve]
2 | CCC(C)NC(=O)Cn1ncc2c(C)n(Cc3ccc(F)cc3)c(C)c2c1=O (centres undefined) | inactive
3 | CCCc1nnc(-c2ccc(OC)cc2)o1 | inconclusive: 26.9 µM [inhibitor, partial curve, poor fit]
4 | O=C(COC(=O)c1ccc(O)cc1O)Nc1nnc(-c2ccccc2)o1 | inconclusive: 37.9 µM [inhibitor, partial curve, poor fit]
5 | COc1cc(C(=O)NNC(=O)C2CC2)cc(OC)c1OC | inactive
6 | COc1cc(OC)c(NC2=CC(=O)C(=O)c3ccccc32)cc1Cl | inconclusive: 23.9 µM [inhibitor, partial curve, poor fit]
7 | CCn1cc(C(=O)N2CCN(c3ccccc3)CC2)c(=O)c2cc(S(=O)(=O)N(C)C3CCCCC3)ccc21 | inconclusive: 33.8 µM [inhibitor, partial curve, poor fit]
8 | CC(=O)CSc1nc(-c2ccccc2)[nH]c1S(=O)(=O)c1ccc(C)cc1 | inconclusive: 26.9 µM [inhibitor, partial curve, poor fit]
9 | Cc1ccc(NC(=O)c2ccc3c(c2)CCN3S(C)(=O)=O)cc1C | active: 15.1 µM
10 | O=C(N/N=C/c1cccs1)c1cccnc1 | inconclusive: 23.9 µM [inhibitor, partial curve, poor fit]
11 | Cc1ccc(OCc2nnc(NC(=O)c3ccco3)s2)cc1 | inconclusive: 37.9 µM [inhibitor, partial curve, poor fit]
12 | CCOC(=O)CC(NC(=O)c1cc2cccc(OC)c2oc1=O)c1ccc(OC)cc1 (centres undefined) | inconclusive: 23.9 µM [inhibitor, single point]
13 | CCOc1ncccc1C(=O)Nc1cccc(-c2nc3cccnc3s2)c1 | inconclusive: 10.7 µM [inhibitor, partial curve]
14 | COc1cc(O)cc(O)c1C(=O)/C=C/c1ccccc1 | inconclusive: 21.3 µM [inhibitor, single point]
15 | Oc1ccccc1-c1csc(-c2ccccc2)n1 | active: 5.36 µM
16 | COC(=O)C1CCN(Cc2cn(-c3ccccc3)nc2-c2ccc3c(c2)OCO3)CC1 | inconclusive: 19 µM [inhibitor, single point]
17 | CC(=O)Oc1cccc(C(=O)Nc2ccc3c(c2)C(=O)N(CC2CCCO2)C3=O)c1 (centres undefined) | inconclusive: 23.9 µM [inhibitor, partial curve, poor fit]
18 | O=C(c1cc2c(s1)CCCC2)N1CCN(c2ccccc2)CC1 | inconclusive: 26.9 µM [inhibitor, partial curve, poor fit]
19 | COc1ccc(NC(=O)c2ccco2)c([N+](=O)[O-])c1 | active: 21.3 µM
20 | Cc1cccc(C(=O)NC2(C(F)(F)F)N=C(c3ccccc3)N(Cc3ccccc3)C2=O)c1 (centres undefined) | inactive
21 | C[C@@H]1CN(C(=O)c2cc(COc3cccc(C(F)(F)F)c3)on2)C[C@H](C)O1 | inactive
22 | O=C(c1ccccc1)C1CCN(C(=O)Nc2ccccc2)CC1 | inconclusive: 21.3 µM [inhibitor, partial curve, poor fit]
23 | O=c1c2c(nc3nc[nH]n13)CCC2 | inactive
24 | Cc1cc(C)cc(N(C)S(=O)(=O)c2nnc(NC(=O)COc3ccc(C)c(C)c3)s2)c1 | inactive
25 | CCCCn1c(N)c(N(CC(C)C)C(=O)CSCc2ccc(Cl)c(Cl)c2)c(=O)[nH]c1=O | inactive

Row | SMILES | Potency
26 | COc1cc(/C=C/C(=O)OCC(=O)Nc2cc(S(=O)(=O)N(C)C)ccc2Cl)ccc1O | inconclusive: 13.5 µM [inhibitor, partial curve, poor fit]
27 | CC1CCc2c(C(=O)NCC3CCCO3)csc2C1 (centres undefined) | inconclusive: 21.3 µM [inhibitor, partial curve]
28 | O=C1c2ccccc2S(=O)(=O)N1CC1CC(c2ccccc2)=NO1 (centres undefined) | active: 6.01 µM
29 | COc1cc(OC)c(NC(=O)COc2ccccc2-c2nnc(-c3ccccc3)o2)cc1Cl | inactive
30 | COc1ccc(/C=C\c2nc(=O)c3ccccc3o2)cc1 | active: 3.79 µM
31 | CN(Cc1ccccc1)C(=O)CCS(=O)(=O)c1ccc2c(c1)NC(=O)CS2 | inactive
32 | Cc1ccc(CCN2C(=O)c3ccc(C(=O)O)cc3C2=O)cc1 | inconclusive: 23.9 µM [inhibitor, single point]
33 | Cc1[nH]n(-c2nc(-c3ccc(Cl)cc3)cs2)c(=O)c1N=Nc1ccc(O)cc1 | inconclusive: 9.53 µM [inhibitor, partial curve, poor fit]
34 | CCOC(=O)/C(C#N)=C\c1ccc(N2CCN(C/C=C/c3ccccc3)CC2)cc1 | inconclusive: 23.9 µM [inhibitor, partial curve, poor fit]
35 | O=C(CCc1ccccc1)N/N=C/c1cccc(O)c1 | inconclusive: 23.9 µM [inhibitor, partial curve, poor fit]
36 | COc1cccc(/C=C/C(=O)OCC(=O)Nc2cccc(S(=O)(=O)N(C)C)c2)c1 | active: 10.7 µM
37 | O=Cc1ccc(OCC(=O)NCC2CCCO2)cc1 (centres undefined) | inactive
38 | O=C(CSc1nnc(NC(=O)c2ccc(F)cc2)s1)NC1CCCC1 | active: 2.39 µM
39 | Cc1ccc(C)c(NC(=O)CN2C(=O)CC(C)S(=O)(=O)c3ccccc32)c1 (centres undefined) | inactive
40 | O=C(NCc1ccc(Cl)cc1)c1cc2ccccn2n1 | inconclusive: 26.9 µM [inhibitor, partial curve, poor fit]
41 | COc1cc(C=O)ccc1OCCCOc1ccccc1[N+](=O)[O-] | inconclusive: 15.1 µM [inhibitor, partial curve, poor fit]
42 | CC(C)CCn1cnc2c(oc3nc4c(cc32)CCCC4)c1=O | active: 1.69 µM
43 | CC(=O)c1ccc(NS(=O)(=O)c2c(C)cc(C)cc2C)cc1 | inconclusive: 23.9 µM [inhibitor, single point]
44 | COc1cc2oc(-c3ccc(O)cc3)cc(=O)c2c(O)c1OC | active: 19 µM
45 | CC(=O)N1CCCc2cc(S(=O)(=O)N3CCC(C(=O)NCc4ccc(F)cc4)CC3)ccc21 | inactive
46 | Cc1ccc(C)c(-n2sc3ccc(F)cc3c2=O)c1 | inconclusive: 15.8 µM [inhibitor, partial curve, poor fit]
47 | CCOc1cc2[nH]c(=O)n(CCC(=O)N3CCN(c4cccc(Cl)c4)CC3)c(=O)c2cc1OCC | inactive
48 | CCC(CC)C(=O)NCCN1CCN(C(=O)C(CC)CC)CC1 | inactive
49 | Cc1cccc(NC(=O)CCNC(=O)c2ccc(Br)cc2)c1 | active: 13.5 µM
50 | O=C(O)COc1ccc2oc3ccccc3c2c1 | inconclusive: 37.9 µM [inhibitor, single point]

Row | SMILES | Potency
51 | Cc1cc(C)cc(OCC(=O)NCC2CCCO2)c1 (centres undefined) | inconclusive: 13.5 µM [inhibitor, partial curve]
52 | CCOCCCNC(=O)/C=C1\Sc2ccccc2N(Cc2ccccc2F)C1=O | inconclusive: 2.69 µM [inhibitor, full curve]
53 | Fc1ccc(/C=N/Nc2ccccn2)cc1 | active: 10.7 µM
54 | Cc1ccccc1C(=O)Nc1ccc(NC(=O)c2cccs2)cc1 | inconclusive: 8.49 µM [inhibitor, partial curve]
55 | COc1ccc(-n2nc(C(=O)O)cc2-c2ccccc2)cc1 | inactive
56 | Cc1cccc(-c2c3c(=O)n(C)c(=O)n(C)c3cn2C(C)C)c1 | inactive
57 | Cc1cccc(/C=c2\s/c(=C\C(=O)C(C)(C)C)[nH]c2=O)c1 | inconclusive: 13.5 µM [inhibitor, partial curve]
58 | O=C(CSc1ncc(-c2ccc(F)cc2)[nH]1)Nc1cccc(O)c1 | active: 19 µM
59 | O=C(c1ccco1)N1CCC(c2nc3c(nnn3Cc3ccc(F)cc3)c(=O)[nH]2)CC1 | inactive
60 | NC(=O)c1c(NC(=O)c2noc3c2CCCC3)sc2c1CCCC2 | inconclusive: 2.39 µM [inhibitor, full curve]
61 | Cc1ccc(Oc2cc(C)nc(-c3ccccc3O)n2)cc1 | inconclusive: 37.9 µM [inhibitor, partial curve, poor fit]
62 | CCC(C)c1ccc(NC(=O)Nc2cccnc2)cc1 (centres undefined) | active: 1.69 µM
63 | O=S(=O)(/N=C(/Nc1ccccc1)C(F)(F)F)c1ccccc1 | inactive
64 | CN(C)S(=O)(=O)c1cccc(NC(=S)N/N=C/c2ccco2)c1 | inconclusive: 30.1 µM [inhibitor, single point]
65 | Cc1ccc(Nc2cc(C(=O)NC3CCCC3)c3ccccc3n2)cc1C | inconclusive: 2.69 µM [inhibitor, partial curve]
66 | COc1cccc(N(C(=O)CCl)C(C(=O)NCCc2ccccc2)c2cccs2)c1 (centres undefined) | inactive
67 | COc1ccccc1OCC(=O)Nc1ccc2c(c1)OCO2 | active: 15.1 µM
68 | O=C(N/N=C/c1ccc([N+](=O)[O-])o1)c1cc(-c2cccc(Br)c2)nc2ccccc12 | active: 4.78 µM
69 | CC(C)COc1ccc(C(=O)NCC2OCCc3ccccc32)cc1 (centres undefined) | inconclusive: 6.75 µM [inhibitor, partial curve, poor fit]
70 | O=C(NC1CCOC1)c1cc(COc2cccc(C(F)(F)F)c2)on1 (centres undefined) | active: 23.9 µM
71 | COc1ccc(CC(=O)Nc2cccc(-c3nnc(-c4ccc(C)cc4)o3)c2)cc1OC | active: 3.01 µM
72 | Cc1cc(C)cc(C(=O)NC(=S)Nc2ccc3c(c2)OCCO3)c1 | active: 6.75 µM
73 | Cc1ccc(-c2csc(Cc3nc(-c4ccc5c(c4)CCC(=O)N5)cs3)n2)cc1 | inconclusive: 37.9 µM [inhibitor, partial curve, poor fit]
74 | CCN(CC)C(=O)CSc1ncnc2sccc12 | inactive
